Laboratory results from article PMC12820563.
This is one part of the list. The list includes weakly bound sequences.

Molecular target: T1, MBP-FoxP3dN (UniProt Q99JB6)
T1 sequence: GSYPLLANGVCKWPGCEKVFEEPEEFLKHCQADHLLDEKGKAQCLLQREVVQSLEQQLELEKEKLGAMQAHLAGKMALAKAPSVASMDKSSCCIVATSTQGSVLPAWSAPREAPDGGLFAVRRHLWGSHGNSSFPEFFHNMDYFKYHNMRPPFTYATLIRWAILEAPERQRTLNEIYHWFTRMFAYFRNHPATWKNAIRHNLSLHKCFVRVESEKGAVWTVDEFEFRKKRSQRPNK
Experiment: PD-seq (MBP pull-down with sequencing)
Settings: 20 mM Tris-HCl pH 7.5, 100 mM NaCl, 1.5 mM MgCl2, 0.4 uM protein, 0.1 uM dsDNA library, 30 min, room temperature, amylose pull-down; high values mean tight binding; double strand, one strand shown

| Sequence | binding signal (RPM ratio (pull-down/input)) |
| --- | --- |
| GATGATTGTTCTCCCAGCTGATGAATTTATCTCTTCGAGTAAACAAATTTTCCTAATCTTTCTGTTCAAGCGCCATCTAC | 0.685 |
| GATGATTGTTCTCCCAGCTGATGAATTGCACCCCTCGAGTAAACAAATTTTCCTAATCTTTCTGTTCAAGCGCCATCTAC | 0.825 |
| GATGATTGTTCTCCCAGCTGATGAATTTCAAGAGTCGAGTAAACAAATTTTCCTAATCTTTCTGTTCAAGCGCCATCTAC | 0.219 |
| GATGATTGTTCTCCCAGCTGATGAATTTTGGGATTCGAGTAAACAAATTTTCCTAATCTTTCTGTTCAAGCGCCATCTAC | 0.383 |
| GATGATTGTTCTCCCAGCTGATGAATTGCGGGACTCGAGTAAACAAATTTTCCTAATCTTTCTGTTCAAGCGCCATCTAC | 0.708 |
| GATGATTGTTCTCCCAGCTGATGAATTGACGTCATCGAGTAAACAAATTTTCCTAATCTTTCTGTTCAAGCGCCATCTAC | 0.769 |
| GATGATTGTTCTCCCAGCTGATGAATTCGATACATCGAGTAAACAAATTTTCCTAATCTTTCTGTTCAAGCGCCATCTAC | 0.67 |
| GATGATTGTTCTCCCAGCTGATGAATTTTATTACTCGAGTAAACAAATTTTCCTAATCTTTCTGTTCAAGCGCCATCTAC | 1.04 |
| GATGATTGTTCTCCCAGCTGATGAATTCCTTTGTTCGAGTAAACAAATTTTCCTAATCTTTCTGTTCAAGCGCCATCTAC | 0.692 |
| GATGATTGTTCTCCCAGCTGATGAATTCGTGTTGTCGAGTAAACAAATTTTCCTAATCTTTCTGTTCAAGCGCCATCTAC | 2.75 |
| GATGATTGTTCTCCCAGCTGATGAATTACACCGGTCGAGTAAACAAATTTTCCTAATCTTTCTGTTCAAGCGCCATCTAC | 0.357 |
| GATGATTGTTCTCCCAGCTGATGAATTCGGAAGCTCGAGTAAACAAATTTTCCTAATCTTTCTGTTCAAGCGCCATCTAC | 0.236 |
| GATGATTGTTCTCCCAGCTGATGAATTGATCGTCTCGAGTAAACAAATTTTCCTAATCTTTCTGTTCAAGCGCCATCTAC | 0.559 |
| GATGATTGTTCTCCCAGCTGATGAATTGTTTGTTTCGAGTAAACAAATTTTCCTAATCTTTCTGTTCAAGCGCCATCTAC | 7.87 |
| GATGATTGTTCTCCCAGCTGATGAATTGTCCAACTCGAGTAAACAAATTTTCCTAATCTTTCTGTTCAAGCGCCATCTAC | 0.318 |
| GATGATTGTTCTCCCAGCTGATGAATTTCCTAGCTCGAGTAAACAAATTTTCCTAATCTTTCTGTTCAAGCGCCATCTAC | 0.222 |

| Sequence | binding signal (RPM ratio (pull-down/input)) |
| --- | --- |
| GATGATTGTTCTCCCAGCTGATGAATTATCCCCGTCGAGTAAACAAATTTTCCTAATCTTTCTGTTCAAGCGCCATCTAC | 0.206 |
| GATGATTGTTCTCCCAGCTGATGAATTTAATGTATCGAGTAAACAAATTTTCCTAATCTTTCTGTTCAAGCGCCATCTAC | 2.21 |
| GATGATTGTTCTCCCAGCTGATGAATTCAGATCGTCGAGTAAACAAATTTTCCTAATCTTTCTGTTCAAGCGCCATCTAC | 0.324 |
| GATGATTGTTCTCCCAGCTGATGAATTCCCAAAGTCGAGTAAACAAATTTTCCTAATCTTTCTGTTCAAGCGCCATCTAC | 0.162 |
| GATGATTGTTCTCCCAGCTGATGAATTATCATGGTCGAGTAAACAAATTTTCCTAATCTTTCTGTTCAAGCGCCATCTAC | 0.376 |
| GATGATTGTTCTCCCAGCTGATGAATTTATGAAATCGAGTAAACAAATTTTCCTAATCTTTCTGTTCAAGCGCCATCTAC | 0.396 |
| GATGATTGTTCTCCCAGCTGATGAATTCAATGTCTCGAGTAAACAAATTTTCCTAATCTTTCTGTTCAAGCGCCATCTAC | 1.61 |
| GATGATTGTTCTCCCAGCTGATGAATTCGCTGTTTCGAGTAAACAAATTTTCCTAATCTTTCTGTTCAAGCGCCATCTAC | 2.11 |
| GATGATTGTTCTCCCAGCTGATGAATTACCAGGGTCGAGTAAACAAATTTTCCTAATCTTTCTGTTCAAGCGCCATCTAC | 0.252 |
| GATGATTGTTCTCCCAGCTGATGAATTCTTAAAGTCGAGTAAACAAATTTTCCTAATCTTTCTGTTCAAGCGCCATCTAC | 0.242 |
| GATGATTGTTCTCCCAGCTGATGAATTCGGCGCATCGAGTAAACAAATTTTCCTAATCTTTCTGTTCAAGCGCCATCTAC | 1.17 |
| GATGATTGTTCTCCCAGCTGATGAATTTTAATGTTCGAGTAAACAAATTTTCCTAATCTTTCTGTTCAAGCGCCATCTAC | 1.76 |
| GATGATTGTTCTCCCAGCTGATGAATTGGTTCCGTCGAGTAAACAAATTTTCCTAATCTTTCTGTTCAAGCGCCATCTAC | 0.298 |
| GATGATTGTTCTCCCAGCTGATGAATTTCCAGTATCGAGTAAACAAATTTTCCTAATCTTTCTGTTCAAGCGCCATCTAC | 0.339 |
| GATGATTGTTCTCCCAGCTGATGAATTCAGTGGGTCGAGTAAACAAATTTTCCTAATCTTTCTGTTCAAGCGCCATCTAC | 0.623 |
